Experimental data taken from PubChem BioAssay AID652104 (National Center for Advancing Translational Sciences (NCATS), 2013).
The whole screen tested about 410,000 compounds, of which about 7,200 (1.8%) were called active. Inconclusive means that the source gave no clear call. Such entries were picked first, then a sample of the others. Calls follow the shape of the dose curve; as a rule, active = well fitted activation curve with a large enough effect; inconclusive = small, poorly fitted or top-dose-only effect, or another doubt; inactive = no such curve, though single readings can be large or run the other way. Potencies of inconclusive entries are left out as doubtful fits.

Assay: qHTS of TDP-43 Inhibitors; also: nearly all actives have a fitted effect of over 50% in size; as to growth rescue (activation): % of control where 0% means no effect
Conditions: TDP-43 expressing yeast growth rescue, BacTiter-Glo, 24 h; growth rescue (activation): at 46.1 µM (top of the series) unless noted
Method in brief: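 Galactose-induced TDP-43 yeast, OD600=0.02, compound pinned; 24 hr, 30 deg C; BacTiter-Glo luminescence for growth. Inhibitors of TDP-43 toxicity read as activators.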
Potency is read from the fitted curve at half-maximal effect; tags tell the direction and shape of the fitted curve.

Row | SMILES | Potency | growth rescue (activation)
1 | Oc1ccc(Br)cc1-c1nc2cnccn2c1NC1CCCCC1 | inconclusive [activator, single point] | –
2 | CC(Sc1ccccc1)C(=O)N1CCN(S(=O)(=O)c2ccc(Cl)cc2)CC1 (stereo not drawn) | inconclusive [activator, single point] | –
3 | Cc1cc(C)c2nc(N3CCCN(C(=O)c4ccco4)CC3)c(C#N)cc2c1 | active: 17.8 µM | –
4 | O=c1[nH]c(CSc2nc(-c3ccccc3)cs2)nc2ccccc12 | inactive | –
5 | CN(C)c1nnnn1-c1ccc(Oc2ncc(C(F)(F)F)cc2Cl)cc1 | inconclusive [activator, single point] | –
6 | S=C(NN=Cc1ccccn1)N(Cc1ccccn1)Cc1ccccn1 | – | inconclusive: -39.8% [activator]
7 | CC1(C)OC(=O)C2=C(C[C@@H](C3CCCCC3)O[C@H]2c2ccccc2)O1 | inconclusive [activator, single point] | –
8 | COC(=O)c1ccc(N2C(=O)CC(Sc3n[nH]c(C)n3)C2=O)cc1 (stereo not drawn) | inconclusive [activator, partial curve] | –
9 | NC(=S)NN=C1c2ccccc2-c2cc(Br)ccc21 | inconclusive [activator, single point] | –
10 | COc1cc(CN(C(=O)COc2ccccc2)c2ccccn2)cc(OC)c1OC | inactive | –
11 | Cc1oc(-c2cccc(Cl)c2)nc1Cn1c(SCc2ccc(F)cc2)nc2cccnc21 | inconclusive [activator, single point] | –
12 | COc1ccc(NC(=O)n2ncc3c(C)cccc32)cc1OC | inconclusive [activator, partial curve] | –
13 | CCCCCCCCN1[C@@H](CC(=O)O)c2cc(C(F)(F)F)ccc2S1(=O)=O | inconclusive [activator, partial curve] | –
14 | CCOC(=O)c1ccccc1NC(=O)CSc1ccc(-c2sc(C)nc2C)nn1 | inconclusive [activator, full curve, poor fit] | –
15 | CCOC(=O)Cc1cc(=O)[nH]n(-c2ccccc2)c1=O | inactive | –
16 | CCOC(=O)c1ccc(NC(=O)CC2OCCN(CC)C2=O)cc1 (stereo not drawn) | – | inconclusive: -91.2% [activator]
17 | CCOC(=O)C1=NN(c2ccc([N+](=O)[O-])cc2)CC1C(=O)OC (stereo not drawn) | inconclusive [activator, single point] | –
18 | CCN(C(=O)c1c(C)oc2ncnc(N3CCCCC3)c12)c1cc(C)ccc1C | inactive | –
19 | c1ccc2c(Cn3nnc4ccccc43)cccc2c1 | inconclusive [activator, single point] | –
20 | CCOc1ccccc1C(=O)NCc1ccc2c(c1)CCN2C(=O)c1ccc(F)cc1 | inconclusive [activator, partial curve] | –
21 | Cc1cc(=O)n2nc(N3CCC(C(=O)Nc4ccc(Br)c(C)c4)CC3)sc2n1 | inactive | –
22 | COCCOc1ccc(C(F)(F)F)cc1NC(=O)COC(=O)c1c(C)noc1C | inconclusive [activator, partial curve] | –

Row | SMILES | Potency | growth rescue (activation)
23 | N#CC1=C(S)N(c2ccccc2)C(c2ccc(-c3cccc(Cl)c3)o2)NC1=O (stereo not drawn) | inconclusive [activator, single point] | –
24 | Cc1nc2ccccc2c2oc(C(=O)Nc3ccc(C(C)C)cc3)cc12 | inconclusive [activator, full curve] | –
25 | COC(=O)c1ccc(OC(=O)c2cccs2)cc1 | inconclusive [activator, partial curve, poor fit] | –
26 | CCc1noc(C)c1C(=O)OCC(=O)Nc1ccccc1SC | inconclusive [activator, partial curve] | –
27 | COc1ccc(-c2nnc3sc(C(C)N4C(=O)c5ccccc5C4=O)nn23)cc1 (stereo not drawn) | inconclusive [activator, partial curve] | –
28 | COc1ccccc1/C=C/c1nc(C#N)c(NCc2ccccc2)o1 | inconclusive [activator, partial curve] | –
29 | Cc1ccc(C)c(NC(=O)c2cnc(N3CCCC3)nc2C)c1 | active: 14.1 µM | –
30 | c1ccc(Nc2ccc3c4c(cccc24)CC3)cc1 | inconclusive [activator, partial curve] | –
31 | COc1ccc(S(=O)(=O)Nc2ccc3c(c2)C(=O)N([C@@H](C)CO)C[C@@H](C)[C@H](CN(C)S(=O)(=O)c2ccc(F)cc2)OCCCC[C@H](C)O3)cc1 | inconclusive [activator, single point] | –
32 | Cc1cc(C)cc(NC(=O)NCc2noc3ccccc23)c1 | inactive | –
33 | S=C(NCc1cccs1)Nc1ccc(Cl)cc1 | inconclusive [activator, single point] | –
34 | N#Cc1cc(-c2ccccc2)nnc1Sc1ccc(Cl)cc1 | inconclusive [activator, full curve, poor fit] | –
35 | FC(F)C(F)(F)C1=CC(c2ccccc2)=NCCN1 | inconclusive [activator, partial curve] | –
36 | CCC(=O)N1CCc2cc(S(=O)(=O)CCC(=O)Nc3cc(Cl)ccc3OC)ccc21 | inconclusive [activator, full curve, poor fit] | –
37 | CNc1cc(C)c(C#N)c2nc3ccccc3n12 | inconclusive [activator, single point] | –
38 | O=S(=O)(c1ccccc1)n1nc(-c2ccco2)nc1NCc1ccccc1 | inactive | –
39 | COc1ccc(OC)c2sc(Cl)nc12 | inconclusive [activator, single point] | –
40 | Cc1ccc(SCC(=O)c2c(C)nc3cc(C)ccn23)cc1 | inconclusive [activator, partial curve] | –
41 | Cc1ccc(-c2csc3nc(CSc4nnc(-c5ccc(Cl)cc5)n4C)[nH]c(=O)c23)cc1 | inconclusive [activator, partial curve] | –
42 | O=C(NNC(=O)c1csc(-c2ccccc2)n1)c1ccccc1 | inconclusive [activator, single point] | –
43 | Cc1cc(C)c(-c2c(N)cc(Br)cc2Br)c(N)c1 | inconclusive [activator, single point] | –
